# From paper PMC4336329 (PLoS ONE, 2015)
# The whole screen tested about 310,000 compounds, of which about 2,200 (0.71%) showed an effect of 50% or more. The effect is printed as a negative number. The list shows a part of the results.
# Molecular target: human ether-à-go-go-related gene (hERG) potassium channel (human, UniProt Q12809)
# Assay: primary screen, population patch clamp on CHO cells stably expressing hERG
# Chain of human ether-à-go-go-related gene (hERG) potassium channel (Q12809 whole entry, looked up): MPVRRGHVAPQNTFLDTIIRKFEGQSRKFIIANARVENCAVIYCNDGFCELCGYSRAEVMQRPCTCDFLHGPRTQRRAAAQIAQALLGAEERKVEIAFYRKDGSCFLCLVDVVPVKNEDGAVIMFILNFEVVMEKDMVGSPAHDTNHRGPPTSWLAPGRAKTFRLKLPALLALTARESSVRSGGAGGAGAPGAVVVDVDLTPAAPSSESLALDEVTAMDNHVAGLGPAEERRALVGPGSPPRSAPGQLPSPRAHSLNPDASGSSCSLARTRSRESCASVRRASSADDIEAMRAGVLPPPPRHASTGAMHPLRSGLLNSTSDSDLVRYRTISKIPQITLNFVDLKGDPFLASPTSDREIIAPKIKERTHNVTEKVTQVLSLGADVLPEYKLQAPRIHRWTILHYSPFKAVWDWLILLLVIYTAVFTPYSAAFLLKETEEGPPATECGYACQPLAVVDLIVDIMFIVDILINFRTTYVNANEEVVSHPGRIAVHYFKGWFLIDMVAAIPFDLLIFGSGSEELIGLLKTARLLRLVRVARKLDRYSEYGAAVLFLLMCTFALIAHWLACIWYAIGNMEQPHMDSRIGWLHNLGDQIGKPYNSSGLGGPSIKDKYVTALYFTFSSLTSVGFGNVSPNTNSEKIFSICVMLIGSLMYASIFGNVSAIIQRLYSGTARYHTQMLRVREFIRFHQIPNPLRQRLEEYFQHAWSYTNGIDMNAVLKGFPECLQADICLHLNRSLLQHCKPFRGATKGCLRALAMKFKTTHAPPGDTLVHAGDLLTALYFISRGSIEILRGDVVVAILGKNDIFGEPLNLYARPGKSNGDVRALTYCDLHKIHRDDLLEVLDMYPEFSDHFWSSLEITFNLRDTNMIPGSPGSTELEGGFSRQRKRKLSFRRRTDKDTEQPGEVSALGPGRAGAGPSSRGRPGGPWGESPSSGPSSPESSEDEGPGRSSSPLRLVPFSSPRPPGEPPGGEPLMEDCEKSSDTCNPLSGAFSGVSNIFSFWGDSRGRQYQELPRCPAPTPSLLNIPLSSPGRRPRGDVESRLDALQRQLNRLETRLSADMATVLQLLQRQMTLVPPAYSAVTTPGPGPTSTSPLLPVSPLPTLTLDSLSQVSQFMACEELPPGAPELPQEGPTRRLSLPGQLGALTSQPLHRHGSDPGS
row,SMILES,"hERG current change (%, negative = inhibition) at 1uM [%]"
1,Cc1ccc(C)c(C(=O)CSc2n[nH]c(C(C)C)n2)c1,9.89
2,CC(=O)C1=C(O)C(=O)N(c2ccccn2)C1c1cccc(F)c1 (stereo not drawn),8.1
3,Cc1cnc(NC(=O)COc2cccc3c2OC(C)(C)C3)s1,13.4
4,O=C(N/N=C/c1ccccc1Cl)c1[nH]c2ccc(Br)cc2c1-c1ccccc1,12.1
5,COc1cc(C(=O)NCc2nnc(SCC(=O)NCc3ccco3)o2)cc(OC)c1OC,15.9
6,Cc1cc(Br)ccc1OCC(=O)N1CCCCCC1,6.68
7,CC(=O)c1c(N2CCOCC2)nc(=S)n(-c2cc(C)ccc2C)c1C,8.51
8,O=C(c1ccccc1)N1CCN(C2c3cccc4cccc(c34)C2NS(=O)(=O)c2ccccc2)CC1 (stereo not drawn),-2.44
9,Cc1ccc(NC(=O)c2sc(N)nc2-c2ccc([N+](=O)[O-])cc2)cc1C,13.5
10,COCCCNC(=O)COc1ccc2oc3c(c2c1)CCCC3,9.3
11,O=C(N/N=C/c1cn(-c2cccs2)nc1-c1ccccc1)c1ccccc1O,19.6
12,Cn1c(CNC(=O)CNS(=O)(=O)c2ccc(Cl)cc2)cc(=O)n(C)c1=O,23.8
13,C=C1CCC2[C@](C)(CO)[C@H](O)CC[C@@]2(C)[C@@H]1/C=C/C1=CCOC1=O (stereo partly drawn),9.77
14,Cc1ccc(C(=O)CCC(=O)N2CCN(c3ccc(F)cc3)CC2)cc1,6.83
15,CCOC(=O)c1ccc(NC(=S)N2CCN(C)CC2)cc1,15.8
16,O=C(Nc1cc(Cl)cc(Cl)c1)C1CCCC1,16.5
17,COc1ccc(CCN2C(=O)N(c3ccc(OC)cc3)C(=O)C2CC(=O)Nc2ccccc2)cc1 (stereo not drawn),-8.53
18,Cc1ccccc1N(Cc1cc(=O)[nH]c2ccccc12)C(=O)CCl,17.6
19,CCOC(=O)CSc1n[nH]c(NC(=O)c2ccc(F)cc2)n1,-4.14
20,CCc1nc2ccc(C(=O)N3CCN(c4ccc([N+](=O)[O-])cc4)CC3)cc2nc1CC,-38.2
21,CC(=NCC1CCCO1)c1c(O)n(-c2ccccc2)c(=O)[nH]c1=O (stereo not drawn),3.99
22,O=C(NCc1ccc(F)cc1)c1cnc(-c2ccccn2)nc1C(F)(F)F,1.81
23,CCOC(=O)N1CCN(C(=O)COC(=O)c2cccc(C)c2[N+](=O)[O-])CC1,2.22
24,CCC(Cc1ccccc1)NC(=O)C1CCN(S(=O)(=O)c2c(C)noc2C)CC1 (stereo not drawn),11.7
